Paper PMC4336329 (PLoS ONE, 2015)
The campaign covered roughly 310,000 compounds. About 14,000 (4.5%) showed an effect of 50% or more. Effects have a minus sign here. This is one part of the list.

These compounds were tested against human ether-à-go-go-related gene (hERG) potassium channel (human, UniProt Q12809) (assay: primary screen, population patch clamp on CHO cells stably expressing hERG).
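Further: peak tail current of the secondary pulse compared with the same well before compound.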

Sequence of human ether-à-go-go-related gene (hERG) potassium channel (Q12809 whole entry, looked up): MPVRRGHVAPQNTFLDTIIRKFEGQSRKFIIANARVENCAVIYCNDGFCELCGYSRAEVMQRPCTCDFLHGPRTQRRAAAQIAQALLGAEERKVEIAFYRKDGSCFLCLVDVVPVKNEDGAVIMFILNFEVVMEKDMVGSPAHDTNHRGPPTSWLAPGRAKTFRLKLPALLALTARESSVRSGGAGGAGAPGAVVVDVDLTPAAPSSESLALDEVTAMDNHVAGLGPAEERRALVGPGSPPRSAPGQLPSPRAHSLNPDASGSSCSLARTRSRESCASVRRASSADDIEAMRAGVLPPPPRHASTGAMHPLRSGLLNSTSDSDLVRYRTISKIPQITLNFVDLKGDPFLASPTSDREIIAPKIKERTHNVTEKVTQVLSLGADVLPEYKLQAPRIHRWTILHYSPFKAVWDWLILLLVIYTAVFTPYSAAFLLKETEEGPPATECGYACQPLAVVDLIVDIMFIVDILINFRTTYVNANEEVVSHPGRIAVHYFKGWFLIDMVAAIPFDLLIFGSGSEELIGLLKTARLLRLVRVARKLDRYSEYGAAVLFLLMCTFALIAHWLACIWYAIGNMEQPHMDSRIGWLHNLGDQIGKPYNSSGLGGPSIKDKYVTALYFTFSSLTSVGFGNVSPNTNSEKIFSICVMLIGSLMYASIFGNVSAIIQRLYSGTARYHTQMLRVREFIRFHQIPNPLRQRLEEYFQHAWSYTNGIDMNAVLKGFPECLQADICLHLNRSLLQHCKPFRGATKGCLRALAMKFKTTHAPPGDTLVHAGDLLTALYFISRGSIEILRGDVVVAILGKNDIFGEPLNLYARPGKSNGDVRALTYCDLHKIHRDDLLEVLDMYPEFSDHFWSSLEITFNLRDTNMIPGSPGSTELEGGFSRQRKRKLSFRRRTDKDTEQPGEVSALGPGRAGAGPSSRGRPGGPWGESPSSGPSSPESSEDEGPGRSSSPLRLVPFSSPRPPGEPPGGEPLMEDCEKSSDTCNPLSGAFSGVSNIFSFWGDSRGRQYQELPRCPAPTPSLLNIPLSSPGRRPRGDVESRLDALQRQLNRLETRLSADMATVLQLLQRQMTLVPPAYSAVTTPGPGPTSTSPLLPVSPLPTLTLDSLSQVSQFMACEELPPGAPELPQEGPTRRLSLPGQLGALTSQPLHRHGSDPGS

Row | SMILES | hERG current change (%, negative = inhibition) at 10uM [%]
1 | CC1=CC(C)(C)N2C(=O)C3(SCC(=O)N3c3ccc(O)cc3)c3cc(C)cc1c32 (centres unmarked) | 0.598
2 | CC1C(=NO)C(C)C(c2ccc(N(C)C)cc2)NC1c1ccc(N(C)C)cc1 (centres unmarked) | -9.71
3 | C=CCn1c(SCC(=O)NCC2CCCO2)nnc1-c1ccccc1 (centres unmarked) | 8.59
4 | COc1ccc(C2C(=O)N(C3CCCCC3)CC(=O)N2CCc2ccccc2)cc1OC (centres unmarked) | -25.7
5 | C/C(=N\NC(=O)CCCOc1ccc(Cl)cc1C)c1ccc(C)o1 | 3.58
6 | CC(=O)c1ccc(NC(=S)N2CCCC(C(F)(F)F)C2)cc1 (centres unmarked) | 3.1
7 | COc1cccc(NC(=O)C(C)C)c1 | 11.4
8 | O=C(C1=C[C@@H](c2coc3ccccc3c2=O)C[C@@H](OCc2ccc(CO)cc2)O1)N1CCN(Cc2ccc3c(c2)OCO3)CC1 | -66.1
9 | COc1ccc(CCNc2ncnc3c2nnn3Cc2ccccc2)cc1OC | -10.9
10 | O=C(CSc1nc(N2CCCCC2)nc(N2CCCCC2)n1)Nc1nccs1 | 10.3
11 | CCn1cc(/C=C(\NC(=O)c2ccc(OC)c(OC)c2)C(=O)NCCN2CCOCC2)c2ccccc21 | -4.43
12 | CC(=O)N1CCN(S(=O)(=O)c2ccc(S(=O)(=O)N3CCCC(C)C3)cc2)CC1 (centres unmarked) | 15.6
13 | CC(NCC(O)COc1ccc2ccccc2c1)c1ccccc1.O=C(O)C(=O)O (centres unmarked) | -44
14 | CNC(=O)COc1ccc(Nc2nnc(C)c3ccccc23)cc1.Cl | 6.34
15 | COc1ccc(C(=O)Nc2ccc(C(=O)N3CCCCC3)cc2)cc1OC | 10.5
16 | CCN(CC)S(=O)(=O)c1ccc(N=NC2=C(O)CCCC2=O)cc1 | -6.95
17 | COC(=O)C1=C(C)N(CCCC(=O)O)C(=O)NC1c1ccccc1Cl (centres unmarked) | -14
18 | CC(=O)OCC(=O)NCc1ccc2c(c1)OCO2 | -28.4
19 | CCCc1cc(=O)[nH]c2nnc(SCC(=O)NCc3ccc4c(c3)OCO4)n12 | -17.2

Row | SMILES | hERG current change (%, negative = inhibition) at 10uM [%]
20 | CSc1nnc(-c2cnccn2)n1C | 14.2
21 | O=C(NCc1nnc2c(C(F)(F)F)cc(Cl)cn12)C1CCCC1 | -12.7
22 | O=C(NCCC(c1ccccc1)c1ccco1)c1cccs1 (centres unmarked) | 3.71
23 | COc1ccc(CNC(=O)COC(=O)c2ccccc2C(=O)c2ccccc2)cc1 | -14.1
24 | Cc1ccnc(NC(=O)CCC(=O)c2cccs2)c1 | 12.5
25 | O=C(CNC(=S)N(Cc1ccccc1F)C1CCCCC1)NCCN1CCOCC1 | 43.3
26 | Cc1ccc(NC(=O)COC(=O)c2cc(Cl)ccc2[N+](=O)[O-])cc1 | -11.1
27 | CCN(CC)CCN1C(=O)C(O)=C(C(=O)c2cccs2)C1c1ccccn1 (centres unmarked) | -2.98
28 | Cc1ccc(S(=O)(=O)N(C)C)cc1NC(=O)COC(=O)CCC1CCCC1 | -18.5
29 | CC(=O)/C=C/n1c(=S)oc2ccccc21 | -3.04
30 | O=C(O)c1ccc(N/N=C/C2=Cc3ccccc3OC2)cc1 | 0.815
31 | COc1ccc(S(=O)(=O)N2CCCCCC2)cc1C(=O)NCc1ccc(C)cc1 | -29.1
32 | CC(C)(C)c1ccc(CCC2OCC(C[N+]3(C)CCOCC3)O2)cc1.[I-] (centres unmarked) | 10.4
33 | CCCOc1ccc(/C=N/NC(=O)CN(c2ccc(OCC)cc2)S(C)(=O)=O)cc1 | -12.3
34 | Cc1ccc(-c2cc(C(=O)NN)n[nH]2)o1 | 17.7
35 | CCCOC1CCCN(C(=O)CCCn2nnnc2CN2CCOCC2)C1 (centres unmarked) | 9.27
36 | CSCC(=O)Nc1cc(C)on1 | 7.57
37 | COc1ccc(CC(C)Nc2ccccc2F)cc1 (centres unmarked) | 30.1
38 | O=C1C2C3C=CC(CC3)C2C(=O)N1/N=C/c1ccccc1O (centres unmarked) | 0.279

Row | SMILES | hERG current change (%, negative = inhibition) at 10uM [%]
39 | CC(NC(=O)Nc1ncccn1)(C(F)(F)F)C(F)(F)F | -1.7
40 | CCc1ccc(N2CC(C(=O)Nc3ccc(S(=O)(=O)NCC4CCCO4)cc3)CC2=O)cc1 (centres unmarked) | 15.4
41 | CCOC(=O)c1[nH]c(C)c(/C(O)=C2\C(=O)C(=O)N(CCCn3ccnc3)C2c2ccncc2)c1C (centres unmarked) | 12.1
42 | CCOCCCNC(=O)c1ccc(N2CC3CC(C2)c2cccc(=O)n2C3)c(NC(=O)Nc2cccc(OC)c2)c1 (centres unmarked) | -2.16
43 | CCOC(=O)C1CCCN(Cc2cc(=O)oc3cc(C)ccc23)C1 (centres unmarked) | -13.6
44 | Nc1nc(SCc2ccc(F)cc2)n[nH]1 | 21.2
45 | O=C(COc1ccc(S(=O)(=O)N2CCCC2)cc1Cl)NC1CCCC1 | -25.5
46 | Cc1cc(C)n(C(=O)CN2C(=O)COc3ccccc32)n1 | 11.3
47 | CSCC(=O)NCC1(N(C)Cc2ccccc2)Cc2ccccc2C1 | 4.41
48 | Cc1csc(NC(=O)CSc2nnc(-c3ccoc3C)n2Cc2ccco2)n1 | -82
49 | O=C(O)c1csc(-c2cccc(Cl)c2)n1 | 11.1
50 | COc1ccc(C(=O)c2ccc(N3CCN(C(=O)c4ccc(F)cc4)CC3)c(F)c2)cc1Br | -7.78
51 | Cc1c(C(=O)NC2CCCCC2)sc2ncnc(N3CCN(c4ccccc4)CC3)c12 | 13.7
52 | CN(Cc1cccs1)C(=O)COc1cccc(-n2cnnn2)c1 | -11.3
53 | C#CCOCCOCCOCCNc1nc(N2CCN(C(=O)C([C@@H](C)CC)n3cc(C(N)COC(=O)C(F)(F)F)nn3)CC2)nc(N2CCN(C(=O)C([C@@H](C)CC)n3cc(C(N)CC(C)C)nn3)CC2)n1.Cl (some centres unmarked) | 28.5
54 | COC(=O)/C=C1\S/C(=N/N=C/c2ccc(Cl)cc2)NC1=O | 16.7
55 | ONC(=Nc1ccccc1)c1ccccc1Cl | 2.37
56 | Cc1ccccc1CN1CCN(C/C=C/c2ccccc2)CC1 | 8.81
